# Measurements taken from publication PMC11995724, “Antibiotic target discovery by integrated phenotypic and activity-based profiling of electrophilic fragments” (Cell chemical biology, 2025).
# Out of some 3,200 compounds screened, about 110 (3.4%) showed an effect of 50% or more. Some of the results follow.
# Test system: T1, V. cholerae SAD30
# T1 construct: SAD30
# Design: species or system S. aureus MSSA476 (TSB) or V. cholerae SAD30 (LB); 384-well bacterial growth screen at 25 uM, OD600 relative to DMSO control
# Details: relative growth, OD600, LB; 25 µM; inhibitor
row,Compound,% of control remaining [%]
1,"O=C(CCl)Nc1cc(Cl)cc(Cl)c1 [4-K09, 2-chloro-N-(3,5-dichlorophenyl)acetamide]",84.8825
2,"O=C(CCl)Cc1ccc(Cl)c(Cl)c1 [10-E15, 1-chloro-3-(3,4-dichlorophenyl)propan-2-one]",25.5601
3,"COc1ccc(S(N)(=O)=O)cc1NC(=O)CCl [6-O03, 2-chloro-N-(2-methoxy-5-sulfamoylphenyl)acetamide]",98.8909
4,"C=CC(=O)N1CCCC1(COC)C(N)=O (centres unmarked) [3-K07, 2-(methoxymethyl)-1-(prop-2-enoyl)pyrrolidine-2-carboxamide]",92.2661
5,"N#CC(=Cc1cccc(Oc2ccccc2)c1)C(=O)N1CCCC1 [9-F06, 3-(3-phenoxyphenyl)-2-(pyrrolidine-1-carbonyl)prop-2-enenitrile]",85.724
6,"C=CC(=O)NC(c1nccs1)C(F)(F)F (centres unmarked) [2-N07, N-[2,2,2-trifluoro-1-(1,3-thiazol-2-yl)ethyl]prop-2-enamide]",88.1887
7,"C=CC(=O)N1CCC(C(=O)NC2(c3ccc(F)cc3F)CCC2)CC1 [3-M04, N-[1-(2,4-difluorophenyl)cyclobutyl]-1-(prop-2-enoyl)piperidine-4-carboxamide]",98.9708
8,"C=CC(=O)N1CCC(C(=O)NC2(Cc3ccccc3)CCCC2)CC1 [3-H12, N-(1-benzylcyclopentyl)-1-(prop-2-enoyl)piperidine-4-carboxamide]",92.4426
9,"COc1ccc(OC)c(-c2csc(NC(=O)CCl)n2)c1 [4-H12, 2-chloro-N-[4-(2,5-dimethoxyphenyl)-1,3-thiazol-2-yl]acetamide]",100.237
10,"CC(Cl)C(=O)N1CC(c2cc(CO)on2)C1 (centres unmarked) [7-M10, 2-chloro-1-{3-[5-(hydroxymethyl)-1,2-oxazol-3-yl]azetidin-1-yl}propan-1-one]",81.1498
11,"CC1CN(c2ccc(NC(=O)C(C#N)=Cc3ccco3)cc2)CC(C)O1 (centres unmarked) [9-J09, 2-cyano-N-[4-(2,6-dimethylmorpholin-4-yl)phenyl]-3-(furan-2-yl)prop-2-enamide]",84.3644
12,"C=CC(=O)NCc1ccc(-n2cccn2)cc1 [1-M07, N-{[4-(1H-pyrazol-1-yl)phenyl]methyl}prop-2-enamide]",89.0882
13,"O=C(CCl)N1C[C@@H]2C[C@H]1CN2c1ccccc1 [5-E22, 2-chloro-1-[(1S,4S)-5-phenyl-2,5-diazabicyclo[2.2.1]heptan-2-yl]ethan-1-one]",106.756
14,"C=CC(=O)N1CCC(C(=O)N2CC=CCC2)(c2ccccc2)CC1 [3-J06, 1-[4-phenyl-4-(1,2,3,6-tetrahydropyridine-1-carbonyl)piperidin-1-yl]prop-2-en-1-one]",95.6185
15,"CC(Cl)C(=O)NCc1ccon1 (centres unmarked) [7-I13, 2-chloro-N-[(1,2-oxazol-3-yl)methyl]propanamide]",79.9604
16,"C=CC(=O)N(CC)Cc1nc2ccsc2c(=O)[nH]1 [3-P16, N-ethyl-N-({4-oxo-3H,4H-thieno[3,2-d]pyrimidin-2-yl}methyl)prop-2-enamide]",108.146
17,"O=C(CCl)NOCc1ccccc1 [4-H22, N-(benzyloxy)-2-chloroacetamide]",119.733
18,"O=C(CCl)Nc1c(F)c(F)c(F)c(F)c1F [4-L08, 2-chloro-N-(2,3,4,5,6-pentafluorophenyl)acetamide]",104.033
19,"C=CC(=O)N1CC(C)c2ccc(S(N)(=O)=O)cc21 (centres unmarked) [3-L16, 3-methyl-1-(prop-2-enoyl)-2,3-dihydro-1H-indole-6-sulfonamide]",96.1478
20,"C=CC(=O)N1CCNC(=O)C1Cc1nc2ccccc2o1 (centres unmarked) [1-B20, 3-[(1,3-benzoxazol-2-yl)methyl]-4-(prop-2-enoyl)piperazin-2-one]",92.2473
21,"CC(Cl)C(=O)N(c1ccccc1)C1CCOC1 (centres unmarked) [7-G14, 2-chloro-N-(oxolan-3-yl)-N-phenylpropanamide]",72.8234
22,"CC(CNC(=O)C(C)Cl)Oc1cccc(Cl)c1 (centres unmarked) [6-F13, 2-chloro-N-[2-(3-chlorophenoxy)propyl]propanamide]",82.8135
23,"CC(C)Oc1ccc(C=C(C#N)C(=O)NC2CCCC2)cc1 [8-O10, 2-cyano-N-cyclopentyl-3-[4-(propan-2-yloxy)phenyl]prop-2-enamide]",68.3209
24,"C=CC(=O)N1CCC(C(=O)N2CCC(C(=O)NC3CC3)CC2)CC1 [2-D10, N-cyclopropyl-1-[1-(prop-2-enoyl)piperidine-4-carbonyl]piperidine-4-carboxamide]",95.2909

row,Compound,% of control remaining [%]
1,"C=CC(=O)Nc1cc(C(=O)CC)ccc1F [2-C22, N-(2-fluoro-5-propanoylphenyl)prop-2-enamide]",116.289
2,"CNC(=O)C(NC(=O)CCl)c1ccccc1 (centres unmarked) [6-M06, 2-(2-chloroacetamido)-N-methyl-2-phenylacetamide]",92.0656
3,"CN(CC(=O)Nc1ccccc1C(F)(F)F)C(=O)CCl [4-K05, 2-chloro-N-methyl-N-({[2-(trifluoromethyl)phenyl]carbamoyl}methyl)acetamide]",103.86
4,"C=CC(=O)N1CCC(C(=O)NCc2ccc(Cl)cc2Cl)CC1 [1-E20, N-[(2,4-dichlorophenyl)methyl]-1-(prop-2-enoyl)piperidine-4-carboxamide]",87.2945
5,"CC(Cl)C(=O)Nc1ccc(C(=O)N(C)C2CCCN(C)C2)cc1 (centres unmarked) [7-I20, 4-(2-chloropropanamido)-N-methyl-N-(1-methylpiperidin-3-yl)benzamide]",79.1674
6,"N#CC(=Cc1cc(F)ccc1F)C(=O)Nc1cc(Cl)ccc1Cl [8-A12, 2-cyano-N-(2,5-dichlorophenyl)-3-(2,5-difluorophenyl)prop-2-enamide]",80.2855
7,"C=CC(=O)Nc1ccnn1CC1CC1 [3-G09, N-[1-(cyclopropylmethyl)-1H-pyrazol-5-yl]prop-2-enamide]",95.442
8,"O=C(CCl)NC(=O)Nc1ccccc1 [4-I17, 3-(2-chloroacetyl)-1-phenylurea]",100.237
9,"N#CC(=Cc1ccc(Sc2ccccc2)o1)C(=O)Nc1ccccc1 [8-K05, 2-cyano-N-phenyl-3-[5-(phenylsulfanyl)furan-2-yl]prop-2-enamide]",68.1849
10,"O=C(CCl)Nc1ccc(F)cc1[N+](=O)[O-] [4-I07, 2-chloro-N-(4-fluoro-2-nitrophenyl)acetamide]",90.7483
11,"C=CC(=O)NC1CCC(c2nc(CC)no2)CC1 (centres unmarked) [1-O08, N-[4-(3-ethyl-1,2,4-oxadiazol-5-yl)cyclohexyl]prop-2-enamide]",89.2377
12,"O=C(CCl)NCCSc1ccccc1 [4-G21, 2-chloro-N-[2-(phenylsulfanyl)ethyl]acetamide]",113.522
13,"CCOc1ccc2nc(NC(=O)CCl)sc2c1 [4-L10, 2-chloro-N-(6-ethoxy-1,3-benzothiazol-2-yl)acetamide]",94.3714
14,"C=CC(=O)NCCC(=O)NC1CCCCC12OCCO2 (centres unmarked) [2-O08, N-[2-({1,4-dioxaspiro[4.5]decan-6-yl}carbamoyl)ethyl]prop-2-enamide]",88.9607
15,"Cl.O=C(CCl)Nc1ccc(CN2CCCCC2)cc1 [6-M04, 2-chloro-N-{4-[(piperidin-1-yl)methyl]phenyl}acetamide hydrochloride]",99.8009
16,"O=C(CCl)Cc1ccc(F)c(F)c1 [10-O17, 1-chloro-3-(3,4-difluorophenyl)propan-2-one]",19.3259
17,"NC(=O)COc1ccc(C(=O)CCl)cc1 [10-M07, 2-[4-(2-chloroacetyl)phenoxy]acetamide]",49.25
18,"N#CC(=Cc1cn(-c2ccccc2)nc1-c1ccc(Cl)cc1)C(N)=O [8-H16, 3-[3-(4-chlorophenyl)-1-phenyl-1H-pyrazol-4-yl]-2-cyanoprop-2-enamide]",69.4086
19,"CCCNC(=O)C(C#N)=Cc1cnc2c(C)cccn12 [9-N14, 2-cyano-3-{8-methylimidazo[1,2-a]pyridin-3-yl}-N-propylprop-2-enamide]",89.9388
20,"CC(Cl)C(=O)N1CCC(N(C)Cc2cc(=O)[nH]c(N(C)C)n2)C1 (centres unmarked) [7-E18, 6-({[1-(2-chloropropanoyl)pyrrolidin-3-yl](methyl)amino}methyl)-2-(dimethylamino)-3,4-dihydropyrimidin-4-one]",74.938
21,"Cc1nn(-c2ccccc2)c(C)c1C=C(C#N)C(=O)Nc1nccs1 [9-E07, 2-cyano-3-(3,5-dimethyl-1-phenyl-1H-pyrazol-4-yl)-N-(1,3-thiazol-2-yl)prop-2-enamide]",86.9477
22,"CC(Cl)C(=O)N1CCCC1c1nc(N(C)C)no1 (centres unmarked) [7-F19, 2-chloro-1-{2-[3-(dimethylamino)-1,2,4-oxadiazol-5-yl]pyrrolidin-1-yl}propan-1-one]",80.489
23,"CCOC(=O)c1c(NC(=O)C(C)Cl)sc2c1CCC(C)C2 (centres unmarked) [5-D04, ethyl 2-(2-chloropropanamido)-6-methyl-4,5,6,7-tetrahydro-1-benzothiophene-3-carboxylate]",91.6255
